Measurements reported in PMC10726135.
Some of the results follow. At the low end of the ranking the order means little. Measured with an extract: partners may take part in the binding.

Target: T1, HNF4alpha8 (COS-7 nuclear extract) (UniProt P41235-5)
T1 sequence: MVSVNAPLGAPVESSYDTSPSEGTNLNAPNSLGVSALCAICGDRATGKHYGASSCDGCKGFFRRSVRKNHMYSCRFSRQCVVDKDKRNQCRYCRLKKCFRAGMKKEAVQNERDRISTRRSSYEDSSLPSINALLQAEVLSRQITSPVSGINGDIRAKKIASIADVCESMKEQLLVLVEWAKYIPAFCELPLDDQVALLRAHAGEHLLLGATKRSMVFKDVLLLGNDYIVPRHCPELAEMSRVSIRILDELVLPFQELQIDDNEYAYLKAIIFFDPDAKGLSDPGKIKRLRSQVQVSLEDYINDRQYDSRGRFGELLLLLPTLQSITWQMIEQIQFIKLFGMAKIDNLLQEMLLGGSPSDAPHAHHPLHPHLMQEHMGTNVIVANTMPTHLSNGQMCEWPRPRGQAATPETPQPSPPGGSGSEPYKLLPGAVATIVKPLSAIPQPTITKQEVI
Assay: protein-binding microarray
Conditions: COS-7 nuclear extract on double-stranded Agilent 4x180k PBM; binding buffer, salt, pH and temperature not given; high values mean tight binding; double strand, one strand shown; sequences stand for … in …GCCTAGGGAGATTAGAGTATCGGTCGA

| Sequence | binding signal (log2 normalized intensity) |
| --- | --- |
| CAACTCCAAAGTCCAAAGTCCAGTCTTATC | 8.47 |
| GAGAAGGGTGGGAATTGGGATAGCAAAGGG | -1.27 |
| TTCAAAGTTCAGTTTGATTACTTGGCACTT | 1.51 |
| AGTATGCCACTGGTTAGTTCCAAAGGACAA | 2.14 |
| TTCTCTAGATGTCCCAGTAGATAACTTCAA | -0.561 |
| AGCTCTGCAATAGAGCCACATTCTGAGACT | -1.28 |
| GGCTGATTGGCAGGCATTCCACACTGCAGG | -1.2 |
| AGAGCAGTGGAAGACAAATGATAATACTTA | -1.28 |
| CAAGGAGGCTGAAGAAGTTGCTCAGTGTTC | 0.223 |
| GCAGTTTTTGATCAAGGAGGACTTTGGAAT | 7.54 |
| AGGAGTACACACCATAAGAGGCTCTAGATC | -1.08 |
| GTTACTGTGTTCCTTTTATCTTACATGCCT | 0.776 |
| ATGCATAGAAGTATGTCTGGGATTTGAAGG | -1.1 |
| TGCAGAGCTTGCTCTCACCAGCTTCTTCTC | -1.29 |
| GGGGGAGGGGACTTCGCTGGAGGTGTTAAA | -1.21 |
| TCTGCTGTTCTTGCCTGATAGCATCGTGGG | 0.443 |
| CTTGGGGTAATCTCCCAATCTCGAGATCAT | -1.33 |
| GAGAAAGAGGGGAAGGATGAATTTAAAAAA | -1.34 |
| TAAAGTGTCTCCCTCTGCAGCAAAGTCCAG | 3.17 |
| TCTTTATTCGTGAGTTTTCCATTTACCTCC | 0.865 |
| TCCTGTTTGTCAGCATCTTCACCGTAAAGC | -0.706 |
| AGCCAAAATAAAGCAGCAAACCAGATAAGA | -1.38 |
| ACTGGTGTTGCTCAAATATTTGGAGAGCAG | 0.699 |
| CTATGTGAGGAATCTAAGATAAGCAGCATT | -1.28 |

| Sequence | binding signal (log2 normalized intensity) |
| --- | --- |
| CTCGCAGAAAGTGGCCGGACAGGTTGGGTC | 0.737 |
| ACAGCGTACTGTGCTAAAGAGTGATTGAAG | -1.26 |
| GTTGCCTGTGAGTCAGGTACCTGCTTCTGC | 0.609 |
| TCAAATATTTGGATAATGTGCCCTTTGTAC | 7.39 |
| AGAGAACTGAAAAAGGGGACCGGCCTTTCC | -1.37 |
| CTGTGTCTTGGCAGTGATCAGTGTTGAGAA | 1.56 |
| TACAGAGTATAATAAAGTGGCAACCCTTGA | 1.59 |
| TTACTCATGTGGTCCTAAGACTAACCTTTG | 4.06 |
| ACAGTAAAGAACAAACTTCCCCTGCAGCTG | -1.19 |
| TGAAAAGAGTGATCTTTGGGCCATATTGAC | 1.62 |
| GCCTGAATGCAGGGAGCAGAGTCCCAAGCA | -1.31 |
| TGGTCCCATAGGAAAGTGAGCATGGGCTTA | -1.16 |
| AAGTGACTTCAAGGGAGTAAAGGTCGTTCT | 5.74 |
| GTAGACACTCATCCCTTGCACTGCTCAGGG | -1.09 |
| ATAAGTTTTCTCATAAAACACCCACCTTGT | -0.154 |
| GGCGGGGCAGCAGGGAAGAGCCGGCCGGCG | -1.31 |
| CTGTGCAAGCCCCTGACCAAGGGTCATGCT | 3.96 |
| GGTTCAAAGTGTAGCGCAGCCAGTTCTGGA | -1.3 |
| GCGGAAGCACACACGAGCTGTGCGCTTAGT | -1.28 |
| CTGAACCTTGCACTATTGACCCAGTGAAAC | 3.39 |
| CATTTTACAGTGCCATTTATCAGTGATTTC | 0.109 |
| CTTCCCTAAGCAGCTGCAGTTTCTGCTATC | -1.25 |
| AAAAGCTTTTCTTCCCCCCTCCCTCCGCAA | 5.54 |
| CGGTCACATTCCACTCAGTCTCTTGAAATC | 0.256 |

| Sequence | binding signal (log2 normalized intensity) |
| --- | --- |
| CCTCCTCCTTGGCTCTCCCCACTTACTTCC | 1.85 |
| GCCGGGAAGATGCCAGCCCCGAGATAACCC | 3.35 |
| GGGAATGGCTCGTATGAATGTGGGAAGCTG | -1.43 |
| GGTCGGGGAGGTGTTTATCTTGTGGTTGGA | 2.32 |
| GCCTGAACTGACTGCATTCCCTTTCTCCTC | -0.597 |
| ATTTATCAAGATGAACTTTGACCCACCTAC | 8.8 |
| AGAGAGAGGTGGGCAAAGGTCTCAAGGCCT | 2.76 |
| TCCATCATTTTTCTCTCTTGGACTCTTGGA | 4.92 |
| TCAGAGGCTGATTTCTCAGGAAGTGCTTGT | -0.831 |
| CATTTTTCTCTCTTGGACTCTTGGACTCCC | 7.67 |
| CAGGTCTCTTTTATGTACCACCGTATTCCT | 1.21 |
| ATGGTTAAGGTGAAAGTCCGACTTTTAAGA | 4.06 |
| TGGACTTTGAGTCATAAGAAACATTTTACA | 3.81 |
| CTCCCACGTCGCTGCCGCAGATCCCCGCTC | -1.26 |
| ACATTTCAAAAGCTGTGTGCTCCTGTAGAA | -0.839 |
| ACATGGTTCACTGATTACTGGATGTATAAT | 1.09 |
| GGGTCTTTTTGACCTGTATCTTGTGGTGAC | 2.81 |
| ATGGTCAGTGTTGATAAGAAAGCTGCAGTC | -0.903 |
| GGGCCGCCTTGGAAAACCCGGCGCGGACAT | -1.35 |
| AGACGGGGCTCTCAGAATCTGCCGATCACT | -1.35 |
| TTCTTAAGATAAGGACTGTTGGACCTCGAA | 3.26 |
| GGACTTGATGATTGACACTATTATTACTGT | 0.729 |
| TTTGCTATGGCCTTTCTTCATTGTTCGCAT | 0.609 |
| TGCCTCCTTCAAGGATTAGCAGATAAATCT | -0.736 |
